In PubChem BioAssay AID1347165 (National Center for Advancing Translational Sciences (NCATS), 2019):
Where “and” joins values, the source holds several entries; their conditions need not be identical. Equal entries are not always repeated. About 5,700 (2.6%) of roughly 220,000 compounds were called active. Inconclusive means that the source gave no clear call. Such entries were picked first, then a sample of the others. Calls follow the shape of the dose curve; as a rule, active = well fitted inhibition curve with a large enough effect; inconclusive = small, poorly fitted or top-dose-only effect; inactive = no such curve, though single readings can be large or run the other way. A potency beside an inconclusive call is a rough fit, not a confirmed value.

biological target: Lysine-specific demethylase 5B (Homo sapiens) (UniProt Q9UGL1); test: Primary screen for KDM5B Histone Demethylases FDH-coupled qHTS; conditions: FDH-coupled NADH fluorescence (FDH is formaldehyde dehydrogenase); activity change, negative = inhibition: at 57.7 µM (top of the series) unless noted; also: nearly all actives have a fitted effect of over 70% in size; as to activity change, negative = inhibition: 0% is about no effect
How it was run: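 Compound dilutions met 200 nM (final) KDM5BΔAP for 10 min at room temperature before substrate addition. The substrate mix held 12.5 µM H3K4me3 with cofactors 25 µM α-ketoglutarate and 50 µM Fe²⁺. NADH signal gain over 30 min defined activity.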
Potency is read from the fitted curve at half-maximal effect; tags tell the direction and shape of the fitted curve.

UniProt Q9UGL1, sequence (Q9UGL1 whole entry, looked up): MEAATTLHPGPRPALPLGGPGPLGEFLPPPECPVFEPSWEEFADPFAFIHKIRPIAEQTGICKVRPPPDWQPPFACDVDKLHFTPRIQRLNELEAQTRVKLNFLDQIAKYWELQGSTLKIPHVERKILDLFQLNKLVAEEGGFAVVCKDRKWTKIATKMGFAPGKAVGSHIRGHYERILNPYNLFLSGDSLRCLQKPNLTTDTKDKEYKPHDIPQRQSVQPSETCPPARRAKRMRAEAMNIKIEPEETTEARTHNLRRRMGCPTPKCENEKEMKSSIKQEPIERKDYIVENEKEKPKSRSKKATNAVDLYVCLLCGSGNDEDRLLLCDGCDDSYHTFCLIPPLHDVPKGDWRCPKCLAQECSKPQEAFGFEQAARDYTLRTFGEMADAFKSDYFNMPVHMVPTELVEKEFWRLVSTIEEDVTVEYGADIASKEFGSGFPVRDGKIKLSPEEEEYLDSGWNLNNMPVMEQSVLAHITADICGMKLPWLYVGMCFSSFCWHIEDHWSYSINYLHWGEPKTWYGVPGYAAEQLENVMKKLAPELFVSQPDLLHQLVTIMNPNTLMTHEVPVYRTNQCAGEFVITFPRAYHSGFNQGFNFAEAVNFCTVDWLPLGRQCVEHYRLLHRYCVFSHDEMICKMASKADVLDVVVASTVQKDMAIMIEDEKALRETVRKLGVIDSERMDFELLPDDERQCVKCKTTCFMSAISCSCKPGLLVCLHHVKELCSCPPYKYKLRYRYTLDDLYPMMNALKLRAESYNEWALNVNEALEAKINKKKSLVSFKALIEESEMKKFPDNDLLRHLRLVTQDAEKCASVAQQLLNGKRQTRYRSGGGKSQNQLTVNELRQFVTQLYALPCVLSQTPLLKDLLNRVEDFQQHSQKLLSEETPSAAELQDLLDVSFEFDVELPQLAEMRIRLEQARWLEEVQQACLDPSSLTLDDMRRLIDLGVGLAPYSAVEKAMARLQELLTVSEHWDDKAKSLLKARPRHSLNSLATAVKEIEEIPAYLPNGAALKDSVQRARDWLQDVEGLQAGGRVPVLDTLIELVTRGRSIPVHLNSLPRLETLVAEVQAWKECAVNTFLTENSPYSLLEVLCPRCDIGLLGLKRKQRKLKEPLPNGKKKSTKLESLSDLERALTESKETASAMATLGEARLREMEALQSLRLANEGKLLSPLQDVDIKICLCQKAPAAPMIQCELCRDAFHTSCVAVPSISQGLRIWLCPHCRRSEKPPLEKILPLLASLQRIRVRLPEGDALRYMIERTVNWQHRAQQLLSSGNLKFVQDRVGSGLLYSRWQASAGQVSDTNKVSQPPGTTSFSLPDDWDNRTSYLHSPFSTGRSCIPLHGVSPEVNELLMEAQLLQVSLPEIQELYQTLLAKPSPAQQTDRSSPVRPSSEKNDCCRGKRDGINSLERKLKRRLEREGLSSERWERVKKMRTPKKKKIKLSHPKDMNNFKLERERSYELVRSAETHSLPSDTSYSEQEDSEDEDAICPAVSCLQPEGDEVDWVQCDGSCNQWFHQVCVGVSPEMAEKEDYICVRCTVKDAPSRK

Row | SMILES | Potency | activity change, negative = inhibition
1 | CCOC(=O)c1cc(OC(=O)c2ccccc2OC)n(-c2ccccc2)n1 | inconclusive: 15.8 µM [inhibitor, partial curve, poor fit] | 
2 | Cc1nn(C)c2nc(-c3ccccn3)nc(NCc3ccc4c(c3)OCO4)c12 | inconclusive: 28.2 µM [inhibitor, single point] | 
3 | Cc1noc2c(NCC3CCOCC3)cc(-c3cccnc3)nc12 | inconclusive: 28.2 µM [inhibitor, single point] | 
4 | Cc1cc(-c2nc3ccncc3[nH]2)c(C)o1 | inconclusive: 141 µM [inhibitor, partial curve, poor fit] and active: 31.6 µM | 
5 | COc1ccc(CNC(=O)CSc2ncc3c(n2)-c2cc(Cl)ccc2N(C)S3(=O)=O)cc1 | inconclusive: 35.5 µM [inhibitor, partial curve, poor fit] | 
6 | CCOC(=O)Cn1c(-c2cccs2)cc2cc(Cl)ccc21 | inconclusive: 35.5 µM [inhibitor, partial curve, poor fit] | 
7 | CCCNC(=O)N[C@@H]1C[C@H](Cn2cc(-c3cccnc3)nn2)[C@@H](O)[C@H]1O | inconclusive: 35.5 µM [inhibitor, partial curve] | 
8 | COc1ccc(NC(=O)Cn2c(N3CCc4ccccc4C3)nc(C)cc2=O)cc1OC | inactive | 
9 | Cc1cccc(N2CCN(c3nccc(-c4ccccn4)n3)CC2)n1 | inconclusive: 22.4 µM [inhibitor, single point] | 
10 | COC(=O)c1c(NC(=O)/C=C/c2ccc(OC)cc2)sc2c1CCC2 | inconclusive: 17.8 µM [inhibitor, partial curve, poor fit] | 
11 | O=C(NCCc1ccc(Cl)cc1)c1nc(-c2ccc(F)cc2)c2cnccn12 | active: 31.6 µM | 
12 | CCCCCCC(O)(c1ccc(OC)cc1)C(CN1CCOCC1)c1ccccc1 (stereo not drawn) | inconclusive: 39.8 µM [inhibitor, single point] | 
13 | COc1ccc(-c2csc(/C(C#N)=C\c3ccccc3C(F)(F)F)n2)cc1 | inactive | 
14 | c1ccc2oc(CN3Cc4[nH]cnc4C[C@H]3c3nc(-c4ccc5c(c4)OCO5)no3)cc2c1 | active: 35.5 µM | 
15 | Cc1nn2c(-c3ccco3)ccnc2c1-c1ccc(Cl)cc1 | inactive | 
16 | COc1ccc(C(=O)Nc2ccc3oc(-c4cc(Cl)ccc4Cl)nc3c2)cc1Br | inconclusive: 14.1 µM [inhibitor, single point] | 
17 | Cc1nn(-c2ccccn2)c(C)c1[C@@H]1C=C[C@@H](NC(=O)c2ccco2)C1 | inconclusive: 50.1 µM [inhibitor, single point] | 
18 | COc1ccc(CNC(=O)CC[C@@H]2CNC(=O)[C@@H]3C[C@H](NCc4ccc(N(C)C)cc4)CN23)cc1 | inconclusive: 31.6 µM [inhibitor, single point] | 
19 | Nc1ccc2ncnc(N3CCCCC3)c2c1 | active: 28.2 µM | 
20 | Cc1oc(-c2cccs2)nc1CC(=O)Nc1ccc(F)cc1F | inconclusive: 31.6 µM [inhibitor, partial curve, poor fit] | 
21 | COc1ccc(C(=O)N2CCc3c(sc4ncnc(N)c34)C2)cc1OC | inactive | 

Row | SMILES | Potency | activity change, negative = inhibition
22 | O=C(O)C1Cn2cccc2C(=O)N1Cc1cccnc1 (stereo not drawn) | inactive | 
23 | COc1ccccc1NC(=O)C(C)N(c1ccccc1)S(C)(=O)=O (stereo not drawn) | inactive | 
24 | Cn1nc(C(=O)N2CC[C@H]3C(=O)NCCCCCCN(Cc4ccncc4)[C@@H]3C2)c2ccccc21 | inconclusive: 39.8 µM [inhibitor, single point] | 
25 | Cc1ccc(C)c(Cn2c(=O)n(-c3ccc(F)cc3)c(=O)c3sc4ccccc4c32)c1 | inconclusive: 4.47 µM [inhibitor, partial curve, poor fit] | 
26 | FC(F)(F)c1cnc(N2CCc3sccc3C2)c(Cl)c1 | inconclusive: 22.4 µM [inhibitor, partial curve, poor fit] | 
27 | Clc1cccc(-n2ncc3c(Nc4ccc5c(c4)OCCO5)ncnc32)c1 | inconclusive: 25.1 µM [inhibitor, partial curve, poor fit] | 
28 | COc1ccc(N2CCN(C(=O)Cn3c(-c4cccs4)cc4ccccc43)CC2)cc1 | inconclusive: 2.51 µM [inhibitor, partial curve, poor fit] | 
29 | O=C(CCNc1nc(Cl)nc2nc[nH]c12)NCCc1c[nH]c2ccc(Cl)cc12 | inconclusive: 31.6 µM [inhibitor, single point] | 
30 | COc1ccc(-c2cc(C(=O)NCC(c3ccc(C)o3)N3CCN(C)CC3)no2)cc1 (stereo not drawn) | inactive | 
31 | COCCNC(=O)C(=O)N1CCN(c2nc(-c3ccccc3)c3c(c2C#N)CCCC3)CC1 | inconclusive: 39.8 µM [inhibitor, single point] | 
32 | COc1cncc(Nc2ncc(-c3cccc(F)c3)c3c2OCC3)c1 | active: 31.6 µM | 
33 | CN1C[C@@H](NC(=O)c2ccccn2)C[C@H]1c1nc(-c2ccc(OC(F)(F)F)cc2)no1 | inactive | 
34 | Cc1ccc(C(=O)NCC(F)(F)F)cc1N | inactive | 
35 | COc1ccc(OC)c(/C=N/NC(=O)CNC(=O)c2cccc3ccccc23)c1 | inconclusive: 31.6 µM [inhibitor, partial curve, poor fit] | 
36 | COc1ccc(Cc2ncc3c(n2)CN(C(=O)c2cc(C)c(C)cc2C)C3)cc1 | inconclusive: 22.4 µM [inhibitor, partial curve] | 
37 | COc1ccc(NC(=O)c2ccc3c(c2)NC(C)(COc2ccc4[nH]ccc4c2)CO3)cn1 (stereo not drawn) | active: 20 µM | 
38 | S=C(NCc1ccc(Cl)cc1)Nc1cccc(Cl)c1 | inactive | 
39 | CCN(CC)C(=O)N1CCOC(c2ccc3cc(OC)ccc3c2)C1 (stereo not drawn) | inactive | 
40 | O=C(c1cc(-c2ccc(F)cc2)nc2ccccc12)N1CCCC(c2nc(C3CCOCC3)no2)C1 (stereo not drawn) | inconclusive: 28.2 µM [inhibitor, partial curve, poor fit] | 
41 | CCCCn1nc(C2CCOC2)nc1-c1cnc(NC)nc1 (stereo not drawn) | active: 25.1 µM | 
42 | Cc1c(C(=O)N2CCN(c3ccc(F)cc3)CC2)sc2ncnc(N3CCN(c4ccccn4)CC3)c12 | inconclusive: 25.1 µM [inhibitor, partial curve, poor fit] | 

Row | SMILES | Potency | activity change, negative = inhibition
43 | O=C(Cc1cnc2ccccn12)N[C@@H]1CCOC[C@H]1Oc1ccccn1 | inconclusive: 31.6 µM [inhibitor, partial curve, poor fit] | 
44 | O=C(c1ccc(Cl)cc1)N1CC2(CCCN(Cc3ccccn3)C2)Cc2ccccc21 (stereo not drawn) | inconclusive: 89.1 µM [inhibitor, partial curve, poor fit] | 
45 | CC(=O)c1cccc(NC(=O)CCCSc2nc(-c3ccco3)cc(C(F)(F)F)n2)c1 | inconclusive: 22.4 µM [inhibitor, single point] | 
46 | Cc1ccc(S(=O)(=O)n2nc(-c3ccco3)nc2NCc2ccc(N(C)C)cc2)cc1 | inconclusive: 12.6 µM [inhibitor, partial curve, poor fit] | 
47 | Cn1ncc2c(C(=O)NCc3ccc(F)cc3)cc(-c3ccc(Cl)nc3)nc21 | active: 79.4 µM | 
48 | Cc1ccc(-n2nc(-c3c(C)nc4scc(CC(=O)NCc5ccccc5)n4c3=O)cc2C)cc1 | inconclusive: 28.2 µM [inhibitor, partial curve, poor fit] | 
49 | O=C(Cc1c[nH]c2ncc(-c3cccnc3)cc12)NC1CC1 | inactive | 
50 | COc1cccc([S+](=O)([O-])N2CCC3(C2)N=C(c2cccnc2)C(=O)N3)c1 (stereo not drawn) | active: 28.2 µM | 
51 | O=C1CNc2ccc(C(=O)NCc3cc4n(n3)CCCNC4)cc2N1 | inconclusive: 7.94 µM [inhibitor, full curve] | 
52 | Cc1nc2c(-c3ccccc3)c(C)nn2c(C)c1CCC(=O)NCc1ccccc1 | inconclusive: 22.4 µM [inhibitor, partial curve, poor fit] | 
53 | CC(C)(C)C(=O)Nc1ccc(-c2csc(NCc3ccco3)n2)cc1 | inconclusive: 35.5 µM [inhibitor, partial curve, poor fit] | 
54 | CC(C#N)Sc1nc(-c2cccs2)cc(C(F)(F)F)c1C#N (stereo not drawn) | inconclusive: 1.78 µM [inhibitor, partial curve, poor fit] | 
55 | O=C(NC[C@H]1O[C@@H](CO)[C@@H](O)[C@H]1N1CCN(c2ccccn2)CC1)Nc1ccc(F)cc1F | inconclusive: 35.5 µM [inhibitor, single point] | 
56 | c1cnc(-c2nc(CNc3ncncn3)cs2)cn1 | inconclusive: 3.16 µM [inhibitor, full curve, poor fit] | 
57 | Cc1noc(-c2ccc(-c3noc(-c4cccc(Cl)c4)n3)cc2)n1 |  | inconclusive: -51.8% [inhibitor] [at 11.5 µM]
58 | Cc1nc2nc(SCC(=O)NC3CCC(C)CC3)nn2c(C)c1Cc1ccccc1Cl (stereo not drawn) | inconclusive: 25.1 µM [inhibitor, partial curve, poor fit] | 
59 | O=C(NC1(c2ccccc2)CCC1)c1cc(=O)[nH]c2ccccc12 | inconclusive: 39.8 µM [inhibitor, single point] | 
60 | O=C(Cn1cc(S(=O)(=O)c2ccccc2)c(=O)c2cc3c(cc21)OCO3)Nc1ccccc1 | inconclusive: 4.47 µM [inhibitor, partial curve, poor fit] | 
61 | Cc1ccc(-c2cc(C(=O)NC(C)C(=O)N(C)C)c3ccccc3n2)o1 (stereo not drawn) | inconclusive: 22.4 µM [inhibitor, partial curve, poor fit] | 
62 | O=C(NCCCc1ccccc1)c1nn(-c2ccccc2)nc1CO | inconclusive: 14.1 µM [inhibitor, partial curve, poor fit] | 
63 | COCc1cn(C[C@H]2C[C@@H](NC(=O)c3cnccn3)[C@H](O)[C@@H]2O)nn1 | inactive | 
